According to publication PMC4336329 (PLoS ONE, 2015):
The campaign covered roughly 310,000 compounds. About 2,200 (0.71%) showed an effect of 50% or more. Effects have a minus sign here. Some of the results follow.

Target: human ether-à-go-go-related gene (hERG) potassium channel (human, UniProt Q12809)
Experiment: primary screen, population patch clamp on CHO cells stably expressing hERG

Chain of human ether-à-go-go-related gene (hERG) potassium channel (Q12809 whole entry, looked up): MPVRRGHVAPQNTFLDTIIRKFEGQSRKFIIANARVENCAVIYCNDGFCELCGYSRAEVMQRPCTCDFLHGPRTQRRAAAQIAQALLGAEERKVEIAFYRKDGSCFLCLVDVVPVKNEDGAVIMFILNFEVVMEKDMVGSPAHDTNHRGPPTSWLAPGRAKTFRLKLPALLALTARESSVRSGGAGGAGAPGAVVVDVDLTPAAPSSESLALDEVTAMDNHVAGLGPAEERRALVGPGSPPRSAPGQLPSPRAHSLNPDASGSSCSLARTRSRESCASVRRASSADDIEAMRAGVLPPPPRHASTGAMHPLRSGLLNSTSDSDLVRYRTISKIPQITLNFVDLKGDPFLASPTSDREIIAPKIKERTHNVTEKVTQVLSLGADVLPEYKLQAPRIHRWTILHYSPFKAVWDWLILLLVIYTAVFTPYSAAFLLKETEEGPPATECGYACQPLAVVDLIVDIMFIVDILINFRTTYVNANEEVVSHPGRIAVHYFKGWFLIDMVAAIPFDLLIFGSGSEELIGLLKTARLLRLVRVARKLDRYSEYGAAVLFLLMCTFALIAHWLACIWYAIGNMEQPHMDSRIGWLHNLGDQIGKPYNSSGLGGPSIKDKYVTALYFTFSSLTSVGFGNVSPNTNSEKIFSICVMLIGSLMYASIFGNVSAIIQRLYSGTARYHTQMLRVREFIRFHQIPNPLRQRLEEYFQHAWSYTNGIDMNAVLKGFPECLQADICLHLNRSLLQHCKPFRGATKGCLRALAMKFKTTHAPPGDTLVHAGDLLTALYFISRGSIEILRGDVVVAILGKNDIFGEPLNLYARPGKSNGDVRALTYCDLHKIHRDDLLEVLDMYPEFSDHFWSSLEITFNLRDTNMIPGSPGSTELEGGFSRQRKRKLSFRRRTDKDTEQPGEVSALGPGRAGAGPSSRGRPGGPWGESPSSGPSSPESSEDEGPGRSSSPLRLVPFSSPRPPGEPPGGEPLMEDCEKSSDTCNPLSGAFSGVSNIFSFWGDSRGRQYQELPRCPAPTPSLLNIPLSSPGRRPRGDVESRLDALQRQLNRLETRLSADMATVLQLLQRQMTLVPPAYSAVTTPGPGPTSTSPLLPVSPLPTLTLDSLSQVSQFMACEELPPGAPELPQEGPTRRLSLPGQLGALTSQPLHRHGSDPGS

| SMILES | hERG current change (%, negative = inhibition) at 1uM [%] |
| --- | --- |
| CCCCOC(=O)c1cc(=O)[nH]c(=O)[nH]1 | 14 |
| COc1ccccc1-c1nc(SCC(=O)O)n[nH]1 | 3.9 |
| O=C(Nc1ccc2c(c1)C(=O)N(C1CCCCC1)C2=O)C1CCCO1 (stereo not drawn) | 1.06 |
| Cc1cc(N2CCN(c3nc(-c4ccc([N+](=O)[O-])cc4)cs3)CC2)c2ccccc2n1 | 2.53 |
| CCc1nc(C)c(-c2ccccc2)c(=O)[nH]1 | 15.1 |
| O=C1CC(N2CCCc3ccccc32)C(=O)N1c1ccccc1Cl (stereo not drawn) | 7.45 |
| COC(=O)C1C/C(=N\NS(=O)(=O)c2ccc(C)cc2)c2ccsc2C1 (stereo not drawn) | 7.94 |
| COc1ccc(C(=O)COC(=O)CCn2nnc(-c3cccc(O)c3OC)n2)cc1 | 11.6 |
| CC1CCCN(C(=O)Cn2c(-c3nonc3N)nc3ccccc32)C1 (stereo not drawn) | 5.09 |
| COc1cc(Cl)c(C)cc1NC(=O)COC(=O)CCc1nc2ccccc2c(=O)[nH]1 | 9.06 |
| CCN(c1ccccc1)S(=O)(=O)c1ccc(C(=O)Nc2nnc(CSC)o2)cc1 | 5.5 |
| Nn1c(SCC(=O)Nc2cccc(F)c2)nnc1C1CCCCC1 | 16.6 |
| Cc1c(Nc2nc3ccccc3nc2NS(=O)(=O)c2ccccc2)c(=O)n(-c2ccccc2)n1C | -40.2 |
| N#Cc1ccc(CSc2nnc(-c3ccncc3)o2)cc1 | -3.56 |
| Cc1cc(OC(=O)c2ccc(C(F)(F)F)cc2)c([N+](=O)[O-])c(=O)[nH]1 | 10.4 |
| CCCS(=O)(=O)c1c(S(=O)(=O)CCC)c2cnccn2c1C(=O)c1ccc(CC)cc1 | 0.628 |
| COc1cc(OC)cc(C(=O)NNC(=O)c2cc(=O)[nH]c3ccccc23)c1 | -2.29 |
| O=C(Nc1ccccc1)NC1CCCc2ccccc21 (stereo not drawn) | 17.5 |
| COc1ccnc2c1c(=O)n(Cc1ccc(F)cc1)c(=O)n2C | 12.5 |
| COc1ccc2nc3ccccc3nc2c1NC(=O)c1ccc(Cl)cc1 | 13.7 |
| CN(C)S(=O)(=O)c1ccc(N2CCCC2)c(C(=O)Nc2nc3ccccc3s2)c1 | 6.61 |
| COc1ccc2c(c1)C(c1ccc(N3CCOCC3)cc1)=NNC(c1cccnc1)=N2 | 8.97 |
| O=C(NCC(=O)N(c1ccccc1F)C(C(=O)NC1CCCC1)c1ccco1)c1ccco1 (stereo not drawn) | 2.58 |
| O=C(CCSCCC(=O)NCCN1CCOCC1)NCCN1CCOCC1 | 13.5 |
